Source: article PMC9160250, “Nuclear Vav3 is required for polycomb repression complex-1 activity in B-cell lymphoblastic leukemogenesis” (Nature Communications, 2022)
No constants are given. Whether binding was seen depends on the method and setting. In cells and extracts the contact can be indirect. Some binding calls cover weakened binding; strength is not graded here. Values belong to the molecule of their own block, whether it stands above or below them.

The chains behind the UniProt entries cited, without tags or fusion partners.
UniProt Q9CQJ4: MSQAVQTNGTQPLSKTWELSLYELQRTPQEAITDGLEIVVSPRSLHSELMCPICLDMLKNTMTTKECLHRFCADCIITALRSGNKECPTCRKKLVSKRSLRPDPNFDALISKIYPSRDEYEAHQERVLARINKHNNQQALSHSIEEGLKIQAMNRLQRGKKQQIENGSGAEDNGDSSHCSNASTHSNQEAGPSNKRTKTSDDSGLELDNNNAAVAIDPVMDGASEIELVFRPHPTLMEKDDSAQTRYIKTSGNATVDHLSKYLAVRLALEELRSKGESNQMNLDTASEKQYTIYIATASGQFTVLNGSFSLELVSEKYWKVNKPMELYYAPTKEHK
UniProt Q61188: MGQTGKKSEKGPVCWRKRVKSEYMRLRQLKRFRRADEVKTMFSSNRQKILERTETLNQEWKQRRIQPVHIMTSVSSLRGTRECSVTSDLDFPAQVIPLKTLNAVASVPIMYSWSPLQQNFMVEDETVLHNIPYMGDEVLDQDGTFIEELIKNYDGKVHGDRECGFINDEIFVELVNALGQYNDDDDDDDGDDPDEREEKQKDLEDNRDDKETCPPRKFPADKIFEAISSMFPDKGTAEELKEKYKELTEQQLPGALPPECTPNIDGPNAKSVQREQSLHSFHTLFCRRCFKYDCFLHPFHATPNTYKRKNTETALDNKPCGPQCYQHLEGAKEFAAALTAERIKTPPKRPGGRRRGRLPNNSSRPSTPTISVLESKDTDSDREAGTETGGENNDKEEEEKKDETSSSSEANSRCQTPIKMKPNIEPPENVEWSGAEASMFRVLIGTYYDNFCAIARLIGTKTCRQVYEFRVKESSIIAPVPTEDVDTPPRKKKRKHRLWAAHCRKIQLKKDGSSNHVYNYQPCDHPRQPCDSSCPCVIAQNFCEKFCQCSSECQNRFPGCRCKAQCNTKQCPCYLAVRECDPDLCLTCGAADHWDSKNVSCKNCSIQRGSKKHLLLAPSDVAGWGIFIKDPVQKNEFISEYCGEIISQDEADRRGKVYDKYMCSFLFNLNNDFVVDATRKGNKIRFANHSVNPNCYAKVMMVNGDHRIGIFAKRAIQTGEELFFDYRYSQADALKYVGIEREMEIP

Legend:
[1] = biological target: T1, Vav3 (mouse (endogenous in Ba/F3 cells and murine B-cell progenitors)) (UniProt Q9R0C8); test: co-IP; cytoplasmic and nuclear fractions of empty vector or p190-BCR-ABL transduced Ba/F3 cells; anti-Vav3 or anti-Bmi1 antibody overnight at 4 °C, protein A/G Dynabeads 2 h, washed 3 times with 1X RIPA buffer; western blot
T1 sequence: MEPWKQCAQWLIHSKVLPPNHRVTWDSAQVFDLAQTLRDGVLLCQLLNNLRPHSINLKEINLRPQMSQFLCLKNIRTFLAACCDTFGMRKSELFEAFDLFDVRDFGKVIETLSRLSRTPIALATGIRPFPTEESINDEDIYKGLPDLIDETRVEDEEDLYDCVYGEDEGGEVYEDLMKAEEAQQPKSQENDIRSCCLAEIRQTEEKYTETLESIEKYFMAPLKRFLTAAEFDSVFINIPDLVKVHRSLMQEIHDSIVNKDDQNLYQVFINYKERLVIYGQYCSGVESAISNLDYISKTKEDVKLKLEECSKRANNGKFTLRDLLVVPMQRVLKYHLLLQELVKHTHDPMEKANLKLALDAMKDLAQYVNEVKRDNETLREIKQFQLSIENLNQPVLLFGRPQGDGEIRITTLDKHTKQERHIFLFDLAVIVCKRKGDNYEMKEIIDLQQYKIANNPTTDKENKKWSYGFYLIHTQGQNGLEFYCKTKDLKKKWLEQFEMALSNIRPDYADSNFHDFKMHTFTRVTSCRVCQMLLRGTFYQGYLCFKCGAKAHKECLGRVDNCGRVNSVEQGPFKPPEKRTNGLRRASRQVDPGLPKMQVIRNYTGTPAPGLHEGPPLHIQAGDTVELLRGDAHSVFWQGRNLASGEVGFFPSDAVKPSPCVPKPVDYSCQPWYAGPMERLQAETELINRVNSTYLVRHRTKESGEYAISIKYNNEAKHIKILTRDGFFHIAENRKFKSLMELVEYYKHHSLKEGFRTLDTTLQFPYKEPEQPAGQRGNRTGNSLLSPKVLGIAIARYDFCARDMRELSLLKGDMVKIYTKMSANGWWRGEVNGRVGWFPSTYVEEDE

[2] = biological target: T2, Bmi1 (mouse (endogenous in Ba/F3 cells and murine B-cell progenitors)) (UniProt P25916); test: proximity ligation; Duolink PLA in fixed, permeabilised primary murine B-cell progenitors on fibronectin-coated slides (empty vector or p190-BCR-ABL transduced; WT, Rac2-/-, or Vav3-/- transduced with empty vector, Vav3 FL or Vav3 N369A); confocal microscopy
T2 sequence: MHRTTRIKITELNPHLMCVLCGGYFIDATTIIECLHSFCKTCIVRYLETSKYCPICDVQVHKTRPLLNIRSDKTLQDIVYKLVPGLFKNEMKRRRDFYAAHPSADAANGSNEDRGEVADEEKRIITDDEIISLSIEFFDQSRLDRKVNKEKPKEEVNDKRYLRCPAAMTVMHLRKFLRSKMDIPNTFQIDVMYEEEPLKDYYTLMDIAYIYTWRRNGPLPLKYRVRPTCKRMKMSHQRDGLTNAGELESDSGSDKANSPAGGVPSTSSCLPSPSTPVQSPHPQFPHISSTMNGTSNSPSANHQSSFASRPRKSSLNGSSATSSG

Molecule: Ring1B (from UniProt Q9CQJ4 1-336)
binding [1]: binds

Molecule: Ezh2 (from UniProt Q61188 1-746)
binding [1]: binds

B2: Bmi1 (protein, UniProt P25916 1-324)
chain: T2 sequence
binding [1]: binds

The remaining lines, values ahead:

binding [2]: no binding
B1: pleckstrin homology domain leucine-rich repeat protein phosphatase 2 (Phlpp2) (protein, UniProt Q8BXA7 1-1320)
chain: MKHNGSRTCLNRRSRFGSRERDWLREDVKRGCVYLYGADTTTATTTTSSSSSSSSSSDLHLVLCTVETPASEICAGEGRESLYLQLHGDLVRRLEPSERPLQIVYDYLSRLGFEDPVRIQEEATNPDLSCMIRFYGEKPCQMDHLDRILLSGIYNVRKGKTQLHKWAERLVVLCGTCLIVSSVKDCQTGKMHILPLVGGKIEEVKRRQHSLAFSSAGAQAQTYHVSFETLAEYQRWQRQASKVVSQRMSTVDLSCYSLEEVPEHLFYSQDITYLNLRHNFMQLERPGGLDTLHKFSQLKGLNLSHNKLGLFPVLLCEISTLTELSLSCNGFHDLPSQIGKLLNLQTLSLDGNGLTALPDELGNLRQLTSLGISFNDFRHIPEVLEKLTMLDKVAMAGNRLEVLNLGALTRMSQVKHVDLRMNHLKTVITENMEGNKHITHMDLRDNQLTDLDLSSLCSLEQLHCERNQLRELTLSGFSLRTLYASWNRLTAVNVYPVPSLLTSLELSQNLLECVPDWACEAKKLEILDISHNLLTEVPMRILSSLSLRKLMVGHNHIHVLPALVEHIPLEVLDIQHNTLSRLPDTLFSKALNLRYLNASANSLESLPSACAGEESLSVLQLLYLTSNLLTDQCIPVLVGHPHLRVLHLANNQLQTFPASKLNKLEQLEELNLSGNKLTAIPTTIANCKRLHTLVAHANNISIFPEILQLPQIQFVDLSCNDLTEILIPEALPATLQDLDLTGNTNLVLEHKTLDMFSHITALKIDQKPLPATDSAVTSTFWSHGLAEMAGQRNKLCVSALAMDNFAEGVGAVYGMFDGDRNEELPRLLQCTMADVLLEEVQHSTNDTVFMTNTFLVSHRKLGMAGQKLGSSALLCYIRPDTADPTSSFSLTVANVGMCQAVLCRGGKPVPLSKVFSLEHDPEEAQRVKDQKAIITEDNKVNGVTCCTRLLGCTYLYPWILPKPHIASTPLTIQDELLILGNKALWEHLSYLEAVNAVRHVQDPLAAAKKLCTLAQSYGCQDNVGAMVVYLNIGEEGCTCEMNGLTLPGPVGFASTAALKDTPKPTTPSSSSGIASEFSSEMSTSEVSSEVGSTASDEHNTVGLEASLLPRPERRCSLHPASSAGVFQRQPSCATFSSNQSDNGLDSDDDQPVEGVITNGSRVEVEVDIHCCRGREPESSPPLPKNSSNACSEERARGAGFGIRRQNSVNSGILLPANRDKMELQKSPSTSCLYGKKLSNGSIVPLEDSLNLIEVATEAPKRKTGYFAAPTQLEPEDQFVVPRDLEEEVKEQMKQHQEGRPEPEPRGEERTEPLEEFDTAL

binding [2]: binds
B3: WT Vav3 (full-length; FL) (protein, UniProt Q9R0C8 1-847)
chain: T1 sequence
